# From PubChem BioAssay AID588591 (National Center for Advancing Translational Sciences (NCATS), 2011)
# Hit rate of the full screen: of about 390,000 compounds, about 4,700 (1.2%) were called active. The inconclusive results got no clear call from the source; some entries with a clear call stand among them for comparison. Calls come from the whole dose curve; as a rule, active = well fitted inhibition curve with a large enough effect; inconclusive = small, poorly fitted or top-dose-only effect, or another doubt; inactive = no such curve, though single readings can be large or run the other way. A potency beside an inconclusive call is a rough fit, not a confirmed value.
# Molecular target: DNA polymerase eta (Homo sapiens) (UniProt Q9Y253)
# Chain of UniProt Q9Y253 (Q9Y253 whole entry, looked up): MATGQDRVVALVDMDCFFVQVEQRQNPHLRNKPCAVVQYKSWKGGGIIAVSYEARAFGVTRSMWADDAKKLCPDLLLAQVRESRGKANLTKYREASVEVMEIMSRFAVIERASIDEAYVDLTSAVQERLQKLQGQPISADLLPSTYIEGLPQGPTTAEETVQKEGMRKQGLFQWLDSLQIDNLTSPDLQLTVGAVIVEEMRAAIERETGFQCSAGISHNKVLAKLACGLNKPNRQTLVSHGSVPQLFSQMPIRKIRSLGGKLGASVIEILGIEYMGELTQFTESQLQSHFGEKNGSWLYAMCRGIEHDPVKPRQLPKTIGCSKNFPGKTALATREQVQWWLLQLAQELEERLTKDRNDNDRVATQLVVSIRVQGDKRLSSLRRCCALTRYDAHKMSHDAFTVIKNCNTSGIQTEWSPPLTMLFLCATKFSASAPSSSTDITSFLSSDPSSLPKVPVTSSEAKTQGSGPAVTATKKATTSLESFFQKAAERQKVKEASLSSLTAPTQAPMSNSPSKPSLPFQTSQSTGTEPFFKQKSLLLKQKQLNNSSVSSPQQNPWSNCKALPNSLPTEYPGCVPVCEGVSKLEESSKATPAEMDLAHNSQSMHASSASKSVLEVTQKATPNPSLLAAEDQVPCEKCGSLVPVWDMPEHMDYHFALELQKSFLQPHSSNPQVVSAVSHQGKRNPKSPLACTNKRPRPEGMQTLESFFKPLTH
# Assay: qHTS for Inhibitors of Polymerase Eta
# Conditions: recombinant Pol eta, fluorescent DNA replication assay; series mostly up to 114 µM
# In short: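 Fluorescent replication assay: 50 nM final substrate added after a 15 min room-temperature compound preincubation with 10 nM enzyme. Signal taken at 0 min and again at 10 min.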
# Potency is the fitted concentration of half-maximal effect; tags give direction and shape of the fitted curve.
row,Compound,Potency
1,Cc1cccc(C(=O)Nc2ccc(C(=O)N/N=C/c3ccco3)cc2)c1,"inconclusive: 17.8 µM [inhibitor, full curve, poor fit]"
2,C[C@@H]1CC[C@]2(C(=O)O[C@@H]3O[C@H](CO)[C@@H](O)[C@H](O)[C@H]3O)CC[C@]3(C)C(=CCC4[C@@]5(C)CC[C@H](O[C@@H]6OC[C@H](O)[C@H](O[C@@H]7O[C@H](CO)[C@@H](O)[C@H](O)[C@H]7O)[C@H]6O)C(C)(C)C5CC[C@]43C)C2[C@]1(C)O (some centres undefined),inactive
3,CCn1c(SCc2c(Cl)cccc2Cl)nc2nc3c(cc2c1=O)CCCC3,"inconclusive: 89.1 µM [inhibitor, partial curve, poor fit]"
4,CCCN1CCc2c(sc(NC(=O)c3ccc(S(=O)(=O)N4CCN(C(=O)OCC)CC4)cc3)c2C(N)=O)C1,"inconclusive: 28.2 µM [inhibitor, partial curve, poor fit]"
5,CCc1ccc(Nc2cc(C(=O)NCCCN(C)c3ccccc3)c3ccccc3n2)cc1,inactive
6,Cc1ccc(-c2nn(-c3ccc(F)cc3)cc2C(=O)NCC2CCCO2)cc1 (centres undefined),"inconclusive: 100 µM [inhibitor, partial curve, poor fit]"
7,CCCn1c(NCc2ccco2)nc2c1c(=O)n(C)c(=O)n2C,"inconclusive: 28.2 µM [inhibitor, partial curve]"
8,O=C(O)Cc1ccc(NC(=O)c2cccc(NC(=O)c3ccco3)c2)cc1,"inconclusive: 56.2 µM [inhibitor, partial curve, poor fit]"
9,COc1ccc(/C=C/C(=O)c2ccc(NS(=O)(=O)c3ccc(C)cc3)cc2)cc1O,"inconclusive: 20 µM [inhibitor, full curve, poor fit]"
10,Oc1cc(CNCc2ccccc2)c(O)cc1CNCc1ccccc1,"inconclusive: 28.2 µM [inhibitor, partial curve, poor fit]"
11,Cc1csc2nc(CSc3nc4ccccc4o3)cn12,inactive
12,COc1ccc(-c2cc(C(C)=O)c(C)n2CCC(=O)NC2CCCCC2)cc1,inactive
13,CCn1cc(C(=O)O)c(=O)c2cc(F)c(N3CCN(S(=O)(=O)c4ccc(NC(C)=O)cc4)CC3)cc21,"inconclusive: 39.8 µM [inhibitor, single point]"
14,CC1CCN(c2ccc(S(=O)(=O)Nc3cc(C(=O)O)cc(C(=O)O)c3)cc2[N+](=O)[O-])CC1,active: 22.4 µM
15,O=C(CN1CCOCC1)NNC(=S)Nc1ccccc1,"inconclusive: 44.7 µM [inhibitor, full curve, poor fit]"
16,O=S(=O)(Nc1cc(C(F)(F)F)ccc1N1CCOCC1)c1ccc2ccccc2c1,"inconclusive: 39.8 µM [inhibitor, partial curve, poor fit]"
17,O=C(CSCc1ccc(Cl)cc1)Nc1cccc(C(=O)Nc2ccccc2C(=O)O)c1,"inconclusive: 39.8 µM [inhibitor, single point]"
18,O=C(CSc1nnc(-c2ccco2)c(-c2ccco2)n1)Nc1ccccc1,active: 2.82 µM
19,O=C(O)C1Nc2c(C(F)(F)F)ccc(Cl)c2C2C=CCC12 (centres undefined),"inconclusive: 50.1 µM [inhibitor, partial curve]"
20,CCN(CC)c1ccc(S(=O)(=O)N2CCOCC2)cc1NC(=O)CN1CCc2ccccc2C1,"inconclusive: 44.7 µM [inhibitor, partial curve, poor fit]"
21,CC(C)c1ccccc1OCC(O)CN(CC(O)COc1cccc2ccccc12)C(C)C (centres undefined),"inconclusive: 50.1 µM [inhibitor, partial curve, poor fit]"
22,CCOC(=O)c1c(CSc2ccc(C)cc2)oc2ccc(O)cc12,"inconclusive: 28.2 µM [inhibitor, partial curve, poor fit]"

row,Compound,Potency
1,CCN(c1ccccc1)S(=O)(=O)c1ccc2[nH]cc(C(=O)NCc3ccc(C)cc3)c(=O)c2c1,"inconclusive: 89.1 µM [inhibitor, single point]"
2,O=C(CN1C(=O)S/C(=C\c2ccccc2)C1=O)Nc1cc([N+](=O)[O-])ccc1O,active: 79.4 µM
3,Cc1ccc(C)c(CN2C(=O)CSc3ccc(C(=O)NCCc4ccc(Cl)cc4)cc32)c1,inactive
4,O=C(NCc1ccco1)c1cc(S(=O)(=O)N2CCCc3ccccc32)ccc1Cl,"inconclusive: 11.2 µM [inhibitor, partial curve, poor fit]"
5,CCc1cccc(CC)c1-n1c(SCC(=O)N2CCCc3ccccc32)nc(O)cc1=O,inactive
6,CN1CCN(S(=O)(=O)c2ccc(NC(=O)c3cccc(F)c3)cc2)CC1,"inconclusive: 56.2 µM [inhibitor, partial curve, poor fit]"
7,O=C(O)CCc1ccc(S(=O)(=O)Nc2ccc(OCc3ccccc3)cc2)cc1,active: 22.4 µM
8,O=C(c1ccccc1)n1nc(-c2ccco2)nc1NCc1ccccc1Cl,inactive
9,COc1cc(C2C3=C(CC(C)(C)CC3=O)NC3=C2C(=O)c2ccccc23)ccc1O (centres undefined),"inconclusive: 79.4 µM [inhibitor, partial curve, poor fit]"
10,CC(C)=CCc1c2c(c3occ(-c4ccc(O)c(O)c4)c(=O)c3c1O)C=CC(C)(C)O2,"inconclusive: 22.4 µM [inhibitor, partial curve, poor fit]"
11,O=C(N/N=C/c1ccco1)c1cccc(N2CCCC2=O)c1,"inconclusive: 28.2 µM [inhibitor, single point]"
12,COCCn1c(SCC(=O)NCc2ccco2)nc2cccnc21,"inconclusive: 39.8 µM [inhibitor, single point]"
13,CC1=C(C(=O)OCC2CCCCC2)C(c2ccc(Cl)cc2Cl)CC(=O)N1 (centres undefined),inactive
14,COCCN(CCOC)Cc1c(O)ccc2c1O/C(=C\c1ccco1)C2=O,"inconclusive: 39.8 µM [inhibitor, full curve]"
15,COc1ccc(-c2csc(N(CCCN(C)C)C(=O)c3ccccc3C)n2)cc1,inactive
16,COC(=O)c1c(NC(=O)CN2CCC3(O)CCCCC3C2c2cc(OC)ccc2OC)sc(C)c1C (centres undefined),"inconclusive: 79.4 µM [inhibitor, single point]"
17,CN(CC(=O)NCCN1CCN(c2ccccc2)CC1)S(=O)(=O)c1ccc2c(c1)CCC(=O)N2,"inconclusive: 89.1 µM [inhibitor, single point]"
18,COc1ccccc1-n1c(C)nnc1SCC(=O)Nc1cc(C)cc(C)c1,"inconclusive: 31.6 µM [inhibitor, single point]"
19,COc1ccc(-c2ccc(NC(=O)c3ccc(Br)o3)cc2)nn1,"inconclusive: 15.8 µM [inhibitor, full curve, poor fit]"
20,CC(C)C(=O)N1CCN(c2ccccc2NC(=S)NC(=O)/C=C/c2ccco2)CC1,"inconclusive: 17.8 µM [inhibitor, full curve, poor fit]"
21,O=c1[nH]c(Sc2ccc([N+](=O)[O-])cc2[N+](=O)[O-])nc2ccccc12,"inconclusive: 70.8 µM [inhibitor, partial curve]"
22,O=C(COC(=O)c1ccc(S(=O)(=O)NCc2ccco2)cc1)Nc1ccc(Cl)cn1,active: 20 µM

row,Compound,Potency
1,COc1ccccc1N1CCN(c2nc3ccccc3nc2C(C#N)C(=O)OC(C)C)CC1 (centres undefined),"inconclusive: 100 µM [inhibitor, partial curve, poor fit]"
2,O=C(NCC(c1cccnc1)N1CCc2ccccc2C1)C(=O)Nc1cccc(Cl)c1 (centres undefined),inactive
3,CCOc1cc(CNCCSc2nnnn2C)cc(Cl)c1OCc1ccc(Cl)cc1,inactive
4,Cc1cccc(N2CCN(C(=O)CCCn3ncn4c(cc5occc54)c3=O)CC2)c1C,inactive
5,O=C(O)c1cc(N2C(=O)C=CC2=O)cc(N2C(=O)C=CC2=O)c1,active: 2.24 µM
6,O=C(N/N=C/C=C/c1ccco1)c1cccc([N+](=O)[O-])c1,"inconclusive: 39.8 µM [inhibitor, partial curve, poor fit]"
7,O=C(NNC(=O)c1cccs1)c1cccc(F)c1,inactive
8,Cc1ccc(/C=C/c2nc3ccccc3n2S(=O)(=O)c2ccc(Br)cc2)cc1,inactive
9,Cc1ccc(OCC(=O)Nc2ccc(N3CCN(C(=O)c4ccco4)CC3)cc2)cc1C,inactive
10,O=C(O)/C=C/c1ccc(S(=O)(=O)Nc2ccc(C(=O)NCC(=O)O)cc2)cc1,active: 17.8 µM
11,O=C(CSc1nnc(-c2ccco2)n1Cc1ccccc1)NC(=O)NCc1ccco1,"inconclusive: 22.4 µM [inhibitor, single point]"
12,CCOC(=O)c1nnn(-c2nc(N(C)C)nc(N(C)C)n2)c1C,inactive
13,COc1ccc(Nc2nnc(-c3ccncc3)s2)cc1Cl,"inconclusive: 28.2 µM [inhibitor, partial curve, poor fit]"
14,O=C1ON=C(c2ccc([N+](=O)[O-])cc2)/C1=C/c1ccccc1O,"inconclusive: 79.4 µM [inhibitor, partial curve]"
15,CSc1ccc(/C=C/c2nc3ccccc3n2S(=O)(=O)c2ccc(F)c(C)c2)cc1,inactive
16,Cc1ccc(-c2cc(C(=O)Nc3ccc(S(=O)(=O)Nc4nccs4)cc3)c3ccccc3n2)c(C)c1,active: 35.5 µM
17,CCC(C(=O)N(C)Cc1ccccc1)n1nc(C)c2sc3ccccc3c2c1=O (centres undefined),inactive
18,COCCn1c(C)cc(C(=O)COc2ccc(N(C)S(=O)(=O)c3ccc(C)cc3)cc2)c1C,"inconclusive: 79.4 µM [inhibitor, partial curve, poor fit]"
19,C=C/C(C)=C/[C@@]1(C)SC(=O)C(C)=C1O,active: 14.1 µM
20,CC1CCN(c2ccc(C(=O)NCc3ccco3)cc2[N+](=O)[O-])CC1,"inconclusive: 70.8 µM [inhibitor, partial curve]"
